34 variants from the RNAGym collection of RNA variant scans (doi:10.1093/nar/gkz1192) can be followed below.

The source gives no read counts; variants with many changes may rest on few reads.

Sequences and labels used below:
B1: CPEB3 Ribozyme (parent)
chain: UAACAGGGGGCCACAGCAGAAGCGUUCACGUCGCAGCCCCUGUCAGAUUCUGGUGAAUCUGCGAAUUCUGCUGUAUAUCUC

The series covers variants of B1. Put plainly: self-cleavage, relative activity (ratio to wild type); higher = more cleavage; in vitro, sequencing. The method in brief:
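Relative activity compares each variant's cleaved/total read fraction with that of the unmutated ribozyme. To get these fractions, barcoded CPEB3 ribozyme libraries from rounds of error-prone PCR were transcribed with T7 RNA polymerase for 5 hours at 37°C and then given 15 min of DNase I treatment before EDTA was added. The RNAs were reverse transcribed with template switching and sequenced on Illumina, and DNA sequencing linked barcodes to variants. A minimum of 5 reads applied, and three batches were averaged.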
With UAACAGGGGGCCACGGCAGAGGCGUUCACGUCGCUGCCCCUGUCAGAUUCUGGUGAAUCUGCGAAUUCUGCUGUAUAUCUC [A15G A21G A35U], the self-cleavage turned out to be 0.31.

UAACAGGGGGCCACGGCAGAGGCGUUCACGUCGCAGCCCCUGUCAGAUUCUGGUGUAUCUACGGAUUCUGCCGAAUAUCUC [A15G A21G A56U G61A A64G U72C U74A]: the self-cleavage worked out at 0.08.

On to UAACAGGGGGCCACGGCUGAAGCGUUCUCGUCGCAGCCCCUGUCAGAUUCUGGUGAACCUGCGAAUUCUGCUGUAUAUCUC [A15G A18U A28U U58C], for which the self-cleavage was 0.37.

UAACAGGGGGCCACGGCGGAAGCGUUCACGUCGCAGCCCCUGUCAGAUUCUGGUGAAUCUGCGAAUUCUGCUGUAUACCUC [A15G A18G U78C]: the self-cleavage came out at 0.34.

As for UAACAGGGGGCCACGGCAGAGGCGUUCACGUCGCAGCCCCUGUCAGAUUCGGGUGAAUCUGCGAAUUCUGCCGUAUAUCUC [A15G A21G U51G U72C], the self-cleavage came out at 0.45.

Consider UAACAGGGGGCCACGGCAGAGGCGUUCACGUCGCAGCCCCAGUCAGAUACUGGAGAAUCUGCGAAUUCUGCUGUAAAUCUC [A15G A21G U41A U49A U54A U76A], for which the self-cleavage was determined as 0.05.

Regarding UAACAGGGGGCCACGGCUGAAGCGUUCACGUCGCAGCCCCCGUCAGAUUCCGGUGUAUCUGCGGAUUCUGCUGUAUAUCUC [A15G A18U U41C U51C A56U A64G], the self-cleavage was 0.08.

Regarding UAACAGGGGGCCACGGCAGAGGCGUUCACGUCGCAGCCCUUGUCAGAUUCUGGUGAAUCUGCGAAUUCUGCUGUAUAUCUC [A15G A21G C40U], the self-cleavage amounted to 0.36.

Turning to UAACAGGGGGCCACGGCAGUAGCGUUCACGUCGCAGCCCCUGUCAGAUUCUGGUGAAUCUGCGAAUUCCGCUGUAUAUCCC [A15G A20U U69C U80C], the self-cleavage came to 0.09.

For the variant UAACAGGGGGCCACGGCAGAUGCGUUCACGUCGCAGCCCCUGUCAGAUUCUGGUGAAUCUGCGACUUCCGCUGUAUAUCCC [A15G A21U A65C U69C U80C], the self-cleavage is 0.1.

Regarding UAACAGGGGGCCACGGCGGAAGCGUUCACGUCGCAGCCCCUGUCGGAUUCUGGUGGAUCUGCGAAUUCUGCUGUAUAUCUC [A15G A18G A45G A56G], the self-cleavage came out at 0.09.

As to UAACAGGGGGCCACGGCAGAGGCGUUCACGUCGCUGCCCCUGUCAGAUUCCGGUGAAUCUGCGAAUUCUGCUGUUUAUCUC [A15G A21G A35U U51C A75U], the self-cleavage was 0.22.

Take UAACAGGGGGCCACGGCAGAAGCGUUCGCGUCGCAGCCCCUGUCCGAUUCUGGUGAAUCUGCGAACUUUGCUGUAUACCUC [A15G A28G A45C U66C C68U U78C]: the self-cleavage was 0.17.

UAACAGGGGGCCACGGCAGAUGCGUUCACGUCGCAGCCCCUGUCAGAUUCUGGUGAAUCUGCGUAUUCUGCUGUAUAUCUC [A15G A21U A64U]: the self-cleavage was 0.11.

Take UAACAGGGGGCCACGGCAGGAGCGUUCACGUCGCAGCCCCUGUCAGAUUCUGGUGAAUCUGCGAAUACUGCUGUAUAACUC [A15G A20G U67A U78A]: the self-cleavage was 0.61.

Take UAACAGGGGGCCACGGCAGACGCGUUCACGUCGCGGCCCCUGUCAGAUUCUGGAGAAUCUGCGAAUUCUGCAGUAUAUCUC [A15G A21C A35G U54A U72A]: the self-cleavage stood at 0.1.

On to UAACAGGGGGCCACGGCAGAGGCGUCCCCGUCGCAGCCCCCGUCAGAUUCUGGUGGAUCUGCGAAUUCUGCUGUAUAUCCC [A15G A21G U26C A28C U41C A56G U80C], for which the self-cleavage is 0.

With UAACAGGGGGCCACGGCAGAGGCGUCCACGUCGCAGCCCCUGUCAGAUUCUGGUGAAUCUGCGAAUUCUGCUGUAUAUCUC [A15G A21G U26C], the self-cleavage amounted to 0.4.

For the variant UAACAGGGGGCCACGGCGGAAGCGUUCACGUCGCUGCCCCUGUCAGAUUCUGGUGAAUCUGCGAAUUCUGCUGCAUAUCUC [A15G A18G A35U U74C], the self-cleavage worked out at 0.1.

Regarding UAACAGGGGGCCACGGCAGAGGCGUUCACGUCGCAGCCCCUGUCAGAUUCUGCUGAAUCUGCGAAUUCUGCUGUAUAUCUC [A15G A21G G53C], the self-cleavage was found to be 0.52.

UAACAGGGGGCCACGGCAGAGGCGUCCACGUCGCAGCCCCCGUCAGAUUCUGGUGAAUGUGCGAGUUCUGCUGUUUAUCUC [A15G A21G U26C U41C C59G A65G A75U]: the self-cleavage turned out to be 0.06.

For the variant UAACAGGGGGCCACGGCAGAGGCGUUCACGUCGCAGCCCCAGUCAGAUUCUGGUGAAUCUGCGAAUUCUGCUGUACAUCUC [A15G A21G U41A U76C], the self-cleavage was found to be 0.03.

Regarding UAACAGGGGGCCACGGCAGUAGCGUUCACGUCGCAGCCCCUGUCAGACUCCGGUGAAUCUGCGAAUUCUGCUGUAUAUCUC [A15G A20U U48C U51C], the self-cleavage worked out at 0.14.

As for UAACAGGGGGCCACGGCGGAAGCGUUCACGUCUCAGCCCCUGUCAGAUUCUGGUGAAUCUGCGAAUUCUGCUGUAUAUCUC [A15G A18G G33U], the self-cleavage was 0.49.

Take UAACAGGGGGCCACGGCAGGAGCGUUCACGUCGCAGCCCCUGUCAGAUUCUGGUGAAUCUGCGAAUUCAGCUGUAUAUCUC [A15G A20G U69A]: the self-cleavage stood at 0.35.

For the variant UAACAGGGGGCCACGGCAGAGGCGUUCACGUCGCAGCCCCUGUCGGAUUCUGGUGAAUCUGUGAAUUCUGCGGAAUAUCUC [A15G A21G A45G C62U U72G U74A], the self-cleavage is 0.12.

For the variant UAACAGGGGGCCACGGCUGAAGCGUUCACGUCGCAGCCCCUGUCAGAUUCUGGUGAAUCUGCGAAUUCUGCCUUAUAUCUC [A15G A18U U72C G73U], the self-cleavage is 0.19.

As to UAACAGGGGGCCACGGCAGGAGCGUUCACGUCGCAGCCCCUGCCAGAUUCUGGUGAAUCUGCGAAUUCUGCUGUAUAUCUC [A15G A20G U43C], the self-cleavage worked out at 0.18.

For UAACAGGGGGCCACGGCAGAUGCGUUCACGUCGCAGCCCCUGUCAGAUUCUGGUGAACCUGCGAAUUCUGCUGUAUAUCUC [A15G A21U U58C], the self-cleavage is 0.23.

For the variant UAACAGGGGGCCACGGCAGAUGCGUUCACGUCACAGCCCCUAUCAGAUUCUGGUGAAUCUGCGAAUUCUGCUGUAUACCUC [A15G A21U G33A G42A U78C], the self-cleavage was 0.06.

Turning to UAACAGGGGGCCACGGCAGAGGCGUUCACGUCGCAGCCCCUGUCAGAUUCUGGCGAAUCUGCGAAUUCUGCUGUUUAUCUC [A15G A21G U54C A75U], the self-cleavage came out at 0.63.

With UAACAGGGGGCCACGGCAGAGGCGUUCACGUCGCAGCCCCUGUCAGAUUCUGGUGAAUCUGCGAAUUCUGCGGUGUAUCUC [A15G A21G U72G A75G], the self-cleavage was 0.49.

As to UAACAGGGGGCCACGGCAGAUGCGUCCACGUCGCAGCCCCUGUCAGAUUCUGGUGAAUCUGGGAAUUCUGCUGUAUAUCUC [A15G A21U U26C C62G], the self-cleavage came to 0.23.

As for UAACAGGGGGCCACGGCAGAGGCGUUCACGUCGCAGCCCCUGUCAGAUUCUGGUGAAUCUGCGAAUUCAGCCGUAUAUCUC [A15G A21G U69A U72C], the self-cleavage came out at 0.24.
